Data published in the supplement of paper PMC10369915.
This is one part of the list. Rule as the data show it: active = 3.2 or more and inactive = the rest. Only a few entries rise above the background.

Molecular target: SHP2 C-SH2 domain E139D
Experiment: enrichment score (SH2-bound / input frequency) (ratio); bacterial display of known human phosphotyrosine sites (pTyr-Var adds point mutants) read by sequencing; higher = stronger binding; tyrosines were phosphorylated by kinases first
Conditions: peptide library: pTyr-Var
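Also: displayed peptides selected on beads carrying the immobilized SH2 domain, with library peptides lacking any tyrosine serving as negative controls.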

Enrichment score, active:
KILTHYKRPHT [KMT2D_Y5349] 3.41

Enrichment score, inactive:
VVKTVYSLQPS [KNSTRN_Y87_P92S] 0.746, DRLASYRDKVR [KRT12_Y139_L140R] 0.76, DRLASYPEKVR [KRT13_Y118_L119P] 0.768, DGLASYLDKVR [KRT12_Y139_R135G] 0.879, DRLASYQDKVR [KRT12_Y139_L140Q] 1.16, HFVDEYDPTME [KRAS_Y32_I36M] 0.767, DRLASYLDKLR [KRT12_Y139_V143L] 1.11, DHLASYLDKVR [KRT10_Y160_R156H] 1.3, EVKAQNEDIAQ [KRT1_Y358_Y358N] 0.57, AGREEYSAMRD [KRAS_Y64_Q61R] 0.523, STGRSYAGVAV [KLHL3_Y577] 0.602, DRLASYLDKVR [KRT10_Y160] 0.935, QEITTYRRLLE [KRT14_Y415_A413T] 0.703, DRLASDLDKVR [KRT10_Y160_Y160D] 0.831, GRQWNYVASML [KLHL4_Y552_S557L] 1.45, KICDWYQRQRP [KRT14_Y151_R148C] 0.625, RLRKFYLGKFL [KLB_Y906_YF] 0.217

Molecular target: SHP2 C-SH2 domain wild-type
Experiment: as above
Conditions: peptide library: pTyr-Var

Enrichment score, inactive:
VVKTVYSLQPS [KNSTRN_Y87_P92S] 1.14, DRLASYRDKVR [KRT12_Y139_L140R] 0.624, DRLASYPEKVR [KRT13_Y118_L119P] 0.608, DGLASYLDKVR [KRT12_Y139_R135G] 0.749, DRLASYQDKVR [KRT12_Y139_L140Q] 0.836, HFVDEYDPTME [KRAS_Y32_I36M] 1.07, DRLASYLDKLR [KRT12_Y139_V143L] 0.983, DHLASYLDKVR [KRT10_Y160_R156H] 1.01, EVKAQNEDIAQ [KRT1_Y358_Y358N] 0.4, AGREEYSAMRD [KRAS_Y64_Q61R] 0.574, KILTHYKRPHT [KMT2D_Y5349] 2.79, STGRSYAGVAV [KLHL3_Y577] 0.697, DRLASYLDKVR [KRT10_Y160] 0.996, QEITTYRRLLE [KRT14_Y415_A413T] 0.609, DRLASDLDKVR [KRT10_Y160_Y160D] 0.789, GRQWNYVASML [KLHL4_Y552_S557L] 1.27, KICDWYQRQRP [KRT14_Y151_R148C] 0.712, RLRKFYLGKFL [KLB_Y906_YF] 0.238

Molecular target: SHP2 N-SH2 domain L43F
Experiment: as above
Conditions: peptide library: pTyr-Var

Enrichment score, inactive:
VVKTVYSLQPS [KNSTRN_Y87_P92S] 0.86, DRLASYRDKVR [KRT12_Y139_L140R] 0.736, DRLASYPEKVR [KRT13_Y118_L119P] 0.723, DGLASYLDKVR [KRT12_Y139_R135G] 0.813, DRLASYQDKVR [KRT12_Y139_L140Q] 0.953, HFVDEYDPTME [KRAS_Y32_I36M] 0.699, DRLASYLDKLR [KRT12_Y139_V143L] 0.985, DHLASYLDKVR [KRT10_Y160_R156H] 1.05, EVKAQNEDIAQ [KRT1_Y358_Y358N] 0.345, AGREEYSAMRD [KRAS_Y64_Q61R] 0.488, KILTHYKRPHT [KMT2D_Y5349] 3.11, STGRSYAGVAV [KLHL3_Y577] 0.662, DRLASYLDKVR [KRT10_Y160] 0.998, QEITTYRRLLE [KRT14_Y415_A413T] 0.488, DRLASDLDKVR [KRT10_Y160_Y160D] 0.72, GRQWNYVASML [KLHL4_Y552_S557L] 1.56, KICDWYQRQRP [KRT14_Y151_R148C] 0.625, RLRKFYLGKFL [KLB_Y906_YF] 0.468

Molecular target: SHP2 N-SH2 domain T42A
Experiment: as above
Conditions: peptide library: pTyr-Var

Enrichment score, inactive:
VVKTVYSLQPS [KNSTRN_Y87_P92S] 0.72, DRLASYRDKVR [KRT12_Y139_L140R] 0.57, DRLASYPEKVR [KRT13_Y118_L119P] 0.783, DGLASYLDKVR [KRT12_Y139_R135G] 0.908, DRLASYQDKVR [KRT12_Y139_L140Q] 0.811, HFVDEYDPTME [KRAS_Y32_I36M] 0.619, DRLASYLDKLR [KRT12_Y139_V143L] 1.06, DHLASYLDKVR [KRT10_Y160_R156H] 0.938, EVKAQNEDIAQ [KRT1_Y358_Y358N] 0.443, AGREEYSAMRD [KRAS_Y64_Q61R] 0.372, KILTHYKRPHT [KMT2D_Y5349] 2.89, STGRSYAGVAV [KLHL3_Y577] 0.624, DRLASYLDKVR [KRT10_Y160] 0.864, QEITTYRRLLE [KRT14_Y415_A413T] 0.402, DRLASDLDKVR [KRT10_Y160_Y160D] 0.638, GRQWNYVASML [KLHL4_Y552_S557L] 1.13, KICDWYQRQRP [KRT14_Y151_R148C] 0.504, RLRKFYLGKFL [KLB_Y906_YF] 0.293

Molecular target: SHP2 N-SH2 domain T52S
Experiment: as above
Conditions: peptide library: pTyr-Var

Enrichment score, inactive:
VVKTVYSLQPS [KNSTRN_Y87_P92S] 0.918, DRLASYRDKVR [KRT12_Y139_L140R] 0.637, DRLASYPEKVR [KRT13_Y118_L119P] 0.868, DGLASYLDKVR [KRT12_Y139_R135G] 0.879, DRLASYQDKVR [KRT12_Y139_L140Q] 0.76, HFVDEYDPTME [KRAS_Y32_I36M] 0.696, DRLASYLDKLR [KRT12_Y139_V143L] 1.01, DHLASYLDKVR [KRT10_Y160_R156H] 1.12, EVKAQNEDIAQ [KRT1_Y358_Y358N] 0.851, AGREEYSAMRD [KRAS_Y64_Q61R] 0.436, STGRSYAGVAV [KLHL3_Y577] 0.704, DRLASYLDKVR [KRT10_Y160] 0.878, QEITTYRRLLE [KRT14_Y415_A413T] 0.435, DRLASDLDKVR [KRT10_Y160_Y160D] 0.639, GRQWNYVASML [KLHL4_Y552_S557L] 1.34, KICDWYQRQRP [KRT14_Y151_R148C] 0.521, RLRKFYLGKFL [KLB_Y906_YF] 0.238

Enrichment score, active:
KILTHYKRPHT [KMT2D_Y5349] 3.37

Molecular target: SHP2 N-SH2 domain wild-type
Experiment: as above
Conditions: peptide library: pTyr-Var

Enrichment score, active:
KILTHYKRPHT [KMT2D_Y5349] 3.28

Enrichment score, inactive:
VVKTVYSLQPS [KNSTRN_Y87_P92S] 0.911, DRLASYRDKVR [KRT12_Y139_L140R] 0.732, DRLASYPEKVR [KRT13_Y118_L119P] 0.745, DGLASYLDKVR [KRT12_Y139_R135G] 1.06, DRLASYQDKVR [KRT12_Y139_L140Q] 0.829, HFVDEYDPTME [KRAS_Y32_I36M] 0.954, DRLASYLDKLR [KRT12_Y139_V143L] 0.94, DHLASYLDKVR [KRT10_Y160_R156H] 1.11, EVKAQNEDIAQ [KRT1_Y358_Y358N] 0.516, AGREEYSAMRD [KRAS_Y64_Q61R] 0.579, STGRSYAGVAV [KLHL3_Y577] 0.765, DRLASYLDKVR [KRT10_Y160] 0.89, QEITTYRRLLE [KRT14_Y415_A413T] 0.623, DRLASDLDKVR [KRT10_Y160_Y160D] 0.847, GRQWNYVASML [KLHL4_Y552_S557L] 1.52, KICDWYQRQRP [KRT14_Y151_R148C] 0.543, RLRKFYLGKFL [KLB_Y906_YF] 0.284
